Out of some 150,000 compounds screened, about 540 (0.36%) showed an effect of 50% or more. The list shows a part of the results.

The test deals with Plasmodium falciparum. Put plainly: Primary screen in NF54 nanoGlo assay, in single point, at 2uM, 72h; a lower Z score goes with more inhibition. Type of test: functional, Erythrocyte. Particulars: timepoint 72 hour.
With `CC[C@@]1(CO)N[C@H](c2cccc(Oc3ccccc3)c2)[C@@H]2CN(C)C[C@@H]21`, the “% Inhibition” value was 3% and the Z score is reported as -0.38.

For `COc1ccc(OCC(=O)Nc2sc3c(c2C#N)CCCCC3)cc1`, the “% Inhibition” value was -5% and the Z score is reported as 0.7.

With `CC(C)[C@@H]1C(=O)Nc2ccc(S(=O)(=O)N3CCCCCC3)cc21`, the “% Inhibition” value is given as -18% and the Z score is reported as 1.76.

For `Cn1ccnc1CS(=O)(=O)Cc1nc(C(C)(C)C)cs1`, the “% Inhibition” value is -8% and the Z score was 1.14.

Turning to `O=C(N[C@H]1CCCCNC1=O)c1sc2ccccc2c1Cl`, the “% Inhibition” value was -17% and the Z score was 2.58.

Consider `c1ccc(C2CCN(c3ncnc4[nH]ccc34)CC2)nc1`, for which the “% Inhibition” value was -11% and the Z score is 1.41.

With `COc1ccc(Cc2ncnn2C2CCCCC2)cc1OC`, the “% Inhibition” value was 5% and the Z score was -0.66.

Regarding `CCn1ccnc1[C@H](C)NC(=O)c1ccn(C(C)C)n1`, the “% Inhibition” value was determined as 1% and the Z score was -0.14.

`COCC1(C(=O)N[C@H]2CN(c3ccc(C#N)cn3)C[C@@H]2C(C)C)CCC1`: the “% Inhibition” value was determined as 5% and the Z score is -0.9.

With `CN1CCCCC[C@H]1C(=O)NCc1cccnc1N1CCN(c2ccccn2)CC1`, the “% Inhibition” value was -6% and the Z score is given as 1.1.

On to `Cc1cn2nc(NC3CCCCCCC3)sc2n1`, for which the “% Inhibition” value is -5% and the Z score was determined as 0.45.

`Clc1ccc(Nc2nc(Nc3ccc(Cl)cc3)nc(Oc3ccccc3)n2)cc1`: the “% Inhibition” value is recorded as 7% and the Z score is -1.16.

`Cc1nc(CNc2nnc(C3CC3)o2)nc2c1CCCC2`: the “% Inhibition” value was -5% and the Z score was 0.46.

As to `Cc1[nH]c(=O)[nH]c(=O)c1CC(=O)NCCN1CCc2ccccc21`, the “% Inhibition” value stood at 2% and the Z score was -0.4.

Turning to `CC(C)N1C[C@@H](O)C[C@H]1c1nnc2n1CCN(Cc1ccc(C(F)(F)F)cc1)C2`, the “% Inhibition” value was -2% and the Z score came to 0.35.

Regarding `CC(C)n1nccc1NC(=O)Cn1cc(C(F)(F)F)ccc1=O`, the “% Inhibition” value was 2% and the Z score is recorded as -0.24.

Regarding `CN(C)[C@@H](CNC(=O)Nc1cccs1)c1csc2ccccc12`, the “% Inhibition” value is listed as -8% and the Z score was found to be 1.16.

With `O=C(NC[C@H]1OC[C@@H](NCc2ccncc2)[C@@H]1O)C1CCCC1`, the “% Inhibition” value amounted to 3% and the Z score is given as -0.38.

Turning to `CCN(C(=O)CN1CCCC[C@H]1C(=O)O)c1ccccc1`, the “% Inhibition” value is listed as -4% and the Z score was 0.69.

Consider `CC(C)[C@H](Cn1ccnn1)NC(=O)Cc1ccccc1Cl`, for which the “% Inhibition” value is recorded as 14% and the Z score was -1.81.

On to `O=C(CC1CCC1)N[C@@]1(CO)CCOC1`, for which the “% Inhibition” value is given as -11% and the Z score is 1.88.

As to `CN(Cc1cscn1)C(=O)c1nn(Cc2ccccc2)c2c1CN(C(=O)c1ccncc1)CC2`, the “% Inhibition” value is on record as -4% and the Z score stood at 0.7.

Take `Cc1cc(C)cc(NC(=O)c2ccc(Cn3ccn4nc5c(c4c3=O)CCCC5)cc2)c1`: the “% Inhibition” value is listed as -18% and the Z score is recorded as 1.7.

Consider `CCCn1cnnc1CN(C)S(=O)(=O)CCC`, for which the “% Inhibition” value is -15% and the Z score is 1.66.

`CN(Cc1cc(-c2ccccc2)on1)C[C@@H]1CCCN2CCCC[C@H]12`: the “% Inhibition” value is -2% and the Z score is 0.34.

Consider `Cc1cc2c(cc1C)N(CC(=O)Nc1ccc(F)cc1F)C(=O)CC(c1cccs1)=N2`, for which the “% Inhibition” value stood at 2% and the Z score is given as -0.2.

For `OCc1cc(C(F)(F)F)ccc1-c1cccc([C@@H]2COCCN2)c1`, the “% Inhibition” value was -2% and the Z score stood at 0.3.

For `O=C(NC1CCCC1)N1CCC[C@H]1c1cccs1`, the “% Inhibition” value was found to be 8% and the Z score is on record as -0.78.

With `CNC(=O)[C@H]1C[C@H](Oc2cccnc2)CN1S(=O)(=O)c1ccccc1C`, the “% Inhibition” value is -7% and the Z score was determined as 1.36.

Consider `Cc1cnc(CCNC(=O)Nc2ccc3ccc(=O)n(C)c3c2)c(C)c1`, for which the “% Inhibition” value is listed as -1% and the Z score was determined as 0.06.

Take `CS(=O)(=O)N1CCC(n2cc(-c3ccsc3)nn2)CC1`: the “% Inhibition” value was -12% and the Z score was found to be 1.5.

For `Cc1ccccc1-c1cc(NC(=O)C(=O)Nc2ccc(F)cc2OC(C)(C)C)n(C)n1`, the “% Inhibition” value came to 4% and the Z score is recorded as -0.37.

As for `O=C(c1ccc2nsnc2c1)N1CC(Nc2cccnn2)C1`, the “% Inhibition” value is on record as -10% and the Z score turned out to be 1.53.

Turning to `COc1cccc(-c2nnc(NC(=O)CCN(C(=O)C3CCCC3)[C@@H](C)c3ccccc3)s2)c1`, the “% Inhibition” value was -7% and the Z score is 0.71.

As for `CC(C)c1nnc(-c2sccc2NC(=O)c2cc(F)ccc2Cl)o1`, the “% Inhibition” value is -3% and the Z score stood at 0.33.

For the molecule `C=CCNS(=O)(=O)c1cc(C)c(OCC)c(C)c1C`, the “% Inhibition” value is -28% and the Z score was determined as 3.3.

For `C[C@H](NC1CCC(=C2CCC2)CC1)c1ncn(C)n1` (stereo not given in full), the “% Inhibition” value turned out to be 2% and the Z score is on record as -0.2.

Take `O=c1[nH]nc2c(N3CC[C@H](NCc4ccc(F)cc4)C3)nccn12`: the “% Inhibition” value is 38% and the Z score is on record as -4.84.

Regarding `CC(C)(C)c1cc2nc(C(=O)O)cc(C3CC3)n2n1`, the “% Inhibition” value is on record as -20% and the Z score was found to be 2.63.

For `CN(C)c1ccc(C(=O)N2CC[C@H](NC(=O)OC(C)(C)C)C2)cc1`, the “% Inhibition” value is listed as -10% and the Z score amounted to 2.04.

Turning to `O[C@H]1CCc2cnn(Cc3ccccn3)c2C1`, the “% Inhibition” value is given as -3% and the Z score came to 0.52.

As to `N#Cc1ccsc1NC(=O)CCN1CCC(O)CC1`, the “% Inhibition” value is -4% and the Z score amounted to 0.53.

Turning to `CO[C@@H](C)C(=O)N(Cc1ccncc1)C1CC1`, the “% Inhibition” value was -10% and the Z score was 1.46.

With `CN(CC#CCNC(=O)c1ccc(=O)[nH]c1)Cc1ccccc1`, the “% Inhibition” value is 0% and the Z score is 0.04.

As to `O=S(=O)(c1ccc(Cl)cc1)N1CCO[C@H]1C(Cl)(Cl)Cl`, the “% Inhibition” value is -10% and the Z score is 1.62.

On to `N#C[C@@H]1CC[C@H](NC(=O)C2CC3CCC2CC3)C1` (stereo not given in full), for which the “% Inhibition” value is -6% and the Z score is reported as 1.13.

On to `CCc1nnc(-c2coc(S(=O)(=O)N3CCC(C)CC3)c2)o1`, for which the “% Inhibition” value is given as -7% and the Z score was 0.88.

Turning to `CCOC[C@H]1CCN(Cc2ccc(CO)c3c2OC(F)(F)O3)C1`, the “% Inhibition” value is on record as -5% and the Z score was 0.67.

Regarding `CC[C@](C)(NC(=O)c1ccc(C)nc1)c1nc(C)cs1`, the “% Inhibition” value was 7% and the Z score is reported as -0.87.

In the case of `CC(C#N)CNC1CC2(C1)CC2NC(=O)OC(C)(C)C` (stereo not given), the “% Inhibition” value was -11% and the Z score is listed as 1.48.

As to `CCCCCn1c(NCc2ccccc2O)nc2ccccc21`, the “% Inhibition” value is given as -4% and the Z score is listed as 0.51.

`Clc1ccc(CCNc2nc3cc(Cl)c(Cl)cc3n3cnnc23)cc1`: the “% Inhibition” value is 14% and the Z score is on record as -2.24.

Turning to `Nc1ncnc(N2Cc3cccc(Br)c3C2)c1Cl`, the “% Inhibition” value was found to be 0% and the Z score is given as 0.

On to `Cc1ccc(NCc2noc(C3CC3)n2)cc1OCC1CCOCC1`, for which the “% Inhibition” value was -5% and the Z score came to 0.75.

Consider `CCCc1cc(C(=O)N[C@H]2CCOC[C@@H]2OCC(=O)N(C)C)no1`, for which the “% Inhibition” value is listed as -13% and the Z score was found to be 2.05.

In general, % Inhibition refers to the change of the read-out against control, counted positive when it falls.
